Kd data for one molecule are collected here from patent US20140348747A1.

As a reminder, the Kd is the equilibrium constant for the complex coming apart.

Values joined by “and” are separate entries in the source; they are usually repeats but may differ in a detail not shown here. Equal values may be shown once. Read-outs that look alike come from different tables or passages of the source.

Holding throughout (conditions): modification not given
Test [1] deals with T1, NLpoly 5P (3P + D108N + N144T).
T1 chain: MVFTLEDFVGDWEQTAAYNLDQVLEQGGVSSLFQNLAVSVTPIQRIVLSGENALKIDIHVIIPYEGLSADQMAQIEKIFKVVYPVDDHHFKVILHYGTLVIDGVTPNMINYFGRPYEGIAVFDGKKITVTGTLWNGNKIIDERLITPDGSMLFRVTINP

Test [2] has the same target.
Test [3] has the same target.
For test [4] the target is unchanged.
Test [5] shares this target.

B1: NLpep78 (peptide)
chain: NVSGWRLFKKISN
On to B1, for which the dissociation constant (Kd) in test [1] is 15 nM; in test [2] it was 18 nM; in test [3], 17.8 nM; in test [4], 9 nM; in test [5], 8.4 nM and 9.6 nM.
